{
  "sequences": {"note": "By UniProt entry, the sequences of proteins in these tests, tags left out. Where a name states a change or a piece, a line headed by the entry shows the natural chain unless it says otherwise. Residues count along the entry.", "UniProt Q9JMH9": "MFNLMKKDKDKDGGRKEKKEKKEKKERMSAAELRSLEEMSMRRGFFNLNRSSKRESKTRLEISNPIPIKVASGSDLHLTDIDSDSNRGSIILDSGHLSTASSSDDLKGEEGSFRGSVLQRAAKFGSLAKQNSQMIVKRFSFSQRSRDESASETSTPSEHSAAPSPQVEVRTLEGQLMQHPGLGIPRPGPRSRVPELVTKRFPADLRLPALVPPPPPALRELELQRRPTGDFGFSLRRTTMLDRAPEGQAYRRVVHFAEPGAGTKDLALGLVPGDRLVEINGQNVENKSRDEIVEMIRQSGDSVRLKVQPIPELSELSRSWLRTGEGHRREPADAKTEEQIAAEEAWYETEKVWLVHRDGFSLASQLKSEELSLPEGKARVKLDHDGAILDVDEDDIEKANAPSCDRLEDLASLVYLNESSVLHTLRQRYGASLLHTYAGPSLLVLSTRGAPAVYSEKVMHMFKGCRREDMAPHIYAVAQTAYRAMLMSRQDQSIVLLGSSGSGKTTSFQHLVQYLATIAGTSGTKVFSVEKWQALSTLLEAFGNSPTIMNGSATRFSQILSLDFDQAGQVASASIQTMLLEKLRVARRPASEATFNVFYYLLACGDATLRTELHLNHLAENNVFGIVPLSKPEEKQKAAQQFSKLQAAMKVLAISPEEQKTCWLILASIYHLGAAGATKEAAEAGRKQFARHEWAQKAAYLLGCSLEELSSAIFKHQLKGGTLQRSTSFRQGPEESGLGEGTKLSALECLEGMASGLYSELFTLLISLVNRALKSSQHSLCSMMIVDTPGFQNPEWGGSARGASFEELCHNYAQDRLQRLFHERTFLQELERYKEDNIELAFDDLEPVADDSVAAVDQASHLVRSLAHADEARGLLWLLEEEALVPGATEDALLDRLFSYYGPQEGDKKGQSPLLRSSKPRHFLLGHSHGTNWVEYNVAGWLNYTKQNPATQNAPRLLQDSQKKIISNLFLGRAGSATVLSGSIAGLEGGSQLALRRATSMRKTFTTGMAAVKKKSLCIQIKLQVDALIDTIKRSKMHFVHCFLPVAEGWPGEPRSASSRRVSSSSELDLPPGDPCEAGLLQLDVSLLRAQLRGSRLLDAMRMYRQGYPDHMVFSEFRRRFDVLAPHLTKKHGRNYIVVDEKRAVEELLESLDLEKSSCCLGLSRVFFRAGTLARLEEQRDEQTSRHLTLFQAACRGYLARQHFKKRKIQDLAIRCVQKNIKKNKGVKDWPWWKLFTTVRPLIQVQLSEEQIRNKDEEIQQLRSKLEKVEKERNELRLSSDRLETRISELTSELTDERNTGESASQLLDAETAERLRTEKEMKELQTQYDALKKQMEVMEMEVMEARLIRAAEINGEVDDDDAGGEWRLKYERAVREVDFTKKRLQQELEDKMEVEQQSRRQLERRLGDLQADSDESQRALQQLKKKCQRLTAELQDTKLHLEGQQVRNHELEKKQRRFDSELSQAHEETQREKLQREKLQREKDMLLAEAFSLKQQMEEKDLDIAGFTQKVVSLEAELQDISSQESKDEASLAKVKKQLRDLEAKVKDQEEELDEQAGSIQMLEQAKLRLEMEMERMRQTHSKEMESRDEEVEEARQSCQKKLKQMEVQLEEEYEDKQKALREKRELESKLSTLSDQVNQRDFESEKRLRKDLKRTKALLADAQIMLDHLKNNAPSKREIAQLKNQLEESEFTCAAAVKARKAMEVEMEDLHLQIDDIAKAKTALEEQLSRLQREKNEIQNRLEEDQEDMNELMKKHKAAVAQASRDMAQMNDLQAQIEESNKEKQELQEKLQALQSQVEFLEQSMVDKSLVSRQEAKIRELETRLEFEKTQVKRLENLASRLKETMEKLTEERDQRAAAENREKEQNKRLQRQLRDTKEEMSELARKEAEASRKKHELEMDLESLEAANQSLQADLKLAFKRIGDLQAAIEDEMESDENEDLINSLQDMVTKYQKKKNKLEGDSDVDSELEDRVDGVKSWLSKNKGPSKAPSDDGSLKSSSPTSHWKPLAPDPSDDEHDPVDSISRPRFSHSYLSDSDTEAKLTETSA", "UniProt Q64331": "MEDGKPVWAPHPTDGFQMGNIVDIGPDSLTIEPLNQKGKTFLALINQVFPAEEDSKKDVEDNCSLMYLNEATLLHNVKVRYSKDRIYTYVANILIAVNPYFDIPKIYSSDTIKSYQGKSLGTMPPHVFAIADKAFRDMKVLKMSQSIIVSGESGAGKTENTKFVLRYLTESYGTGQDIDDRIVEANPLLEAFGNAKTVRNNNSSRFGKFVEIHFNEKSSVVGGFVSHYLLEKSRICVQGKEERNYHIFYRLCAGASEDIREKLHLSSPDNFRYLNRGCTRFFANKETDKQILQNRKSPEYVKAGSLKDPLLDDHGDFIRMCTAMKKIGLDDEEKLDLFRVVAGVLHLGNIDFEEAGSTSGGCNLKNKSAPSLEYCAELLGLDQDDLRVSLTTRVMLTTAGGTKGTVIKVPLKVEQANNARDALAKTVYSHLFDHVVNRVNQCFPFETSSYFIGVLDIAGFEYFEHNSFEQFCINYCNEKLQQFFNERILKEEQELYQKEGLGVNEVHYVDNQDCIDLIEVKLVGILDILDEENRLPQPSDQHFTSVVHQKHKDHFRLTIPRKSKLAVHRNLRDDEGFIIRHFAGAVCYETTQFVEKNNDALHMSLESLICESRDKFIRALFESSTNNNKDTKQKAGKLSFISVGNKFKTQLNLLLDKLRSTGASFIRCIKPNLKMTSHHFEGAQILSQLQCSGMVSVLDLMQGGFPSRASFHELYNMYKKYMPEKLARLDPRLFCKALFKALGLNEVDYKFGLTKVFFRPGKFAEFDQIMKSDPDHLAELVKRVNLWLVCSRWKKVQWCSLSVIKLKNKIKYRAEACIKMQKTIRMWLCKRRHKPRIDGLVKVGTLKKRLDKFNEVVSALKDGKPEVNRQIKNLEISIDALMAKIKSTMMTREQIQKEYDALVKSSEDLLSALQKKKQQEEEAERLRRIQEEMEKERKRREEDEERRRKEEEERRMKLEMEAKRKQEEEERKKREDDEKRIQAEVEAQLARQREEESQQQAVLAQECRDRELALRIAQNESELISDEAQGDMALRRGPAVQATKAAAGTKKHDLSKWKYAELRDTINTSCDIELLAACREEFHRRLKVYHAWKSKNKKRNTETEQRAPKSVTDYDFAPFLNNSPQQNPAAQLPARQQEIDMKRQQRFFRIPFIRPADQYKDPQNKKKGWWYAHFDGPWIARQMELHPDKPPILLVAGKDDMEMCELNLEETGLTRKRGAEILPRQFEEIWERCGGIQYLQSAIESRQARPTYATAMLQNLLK", "HCBD–GST (helical cargo-binding domain of mouse Myo6, residues 1052–1096)": "residues 1052-1096 of Q64331", "UniProt Q02248": "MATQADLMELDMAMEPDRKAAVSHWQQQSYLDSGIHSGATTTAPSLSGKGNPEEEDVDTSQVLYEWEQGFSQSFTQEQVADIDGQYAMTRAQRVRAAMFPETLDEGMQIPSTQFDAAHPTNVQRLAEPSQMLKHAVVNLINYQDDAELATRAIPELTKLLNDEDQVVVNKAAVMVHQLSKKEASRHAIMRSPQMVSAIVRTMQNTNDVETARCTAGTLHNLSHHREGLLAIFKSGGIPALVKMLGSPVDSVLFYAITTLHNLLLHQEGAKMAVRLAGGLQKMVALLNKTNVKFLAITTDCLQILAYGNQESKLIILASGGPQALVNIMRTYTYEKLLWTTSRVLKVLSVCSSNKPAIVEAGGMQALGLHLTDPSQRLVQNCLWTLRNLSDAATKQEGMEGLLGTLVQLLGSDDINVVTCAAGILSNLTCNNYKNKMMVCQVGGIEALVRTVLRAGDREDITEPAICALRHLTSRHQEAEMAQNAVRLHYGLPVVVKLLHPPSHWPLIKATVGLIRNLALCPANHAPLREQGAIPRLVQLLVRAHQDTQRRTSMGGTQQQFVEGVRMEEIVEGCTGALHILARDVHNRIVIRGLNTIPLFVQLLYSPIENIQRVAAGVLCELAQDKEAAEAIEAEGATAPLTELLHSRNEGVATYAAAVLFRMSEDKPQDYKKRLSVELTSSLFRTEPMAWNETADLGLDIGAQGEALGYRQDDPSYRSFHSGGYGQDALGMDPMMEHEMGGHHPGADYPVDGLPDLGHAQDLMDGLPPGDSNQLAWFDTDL"},
  "source": "paper PMC10234109",
  "about": "(2023)",
  "molecules": {"B1": {"name": "Full-length GIPC3 (residues 1–297), MBP-tagged (protein, UniProt Q8R5M0 1-297)", "chain": "MDSAAPREPGATEPPARARPRLVFRTQLAHGSPTGRIEGFTNVRELYAKIAEAFGIAPTEILFCTLNSHKVDMQKLLGGQIGLEDFIFAHVRGETKEVEVTKTEDALGLTITDNGAGYAFIKRIKEGSIINRIEAVCVGDSIEAINDHSIVGCRHYEVAKMLRELPKSQPFTLRLVQPRRAFDMIGQRSRSSKCPVEAKVSSGRETLRLRSGGAATVEEAPSDVEAAAARRVDDLLESYMGIRDPELAAAVVETARSSAGAQAFARGLDAVLGEFAFPDEFVVEVWAAIGEAHDACG"}, "B2": {"name": "mCherry–GIPC3 (protein, UniProt Q8R5M0 1-297)", "chain": "B1 chain"}, "B3": {"name": "GIPC3 PDZ-GH2 domains (93–297), MBP-tagged (protein)", "chain": "GETKEVEVTKTEDALGLTITDNGAGYAFIKRIKEGSIINRIEAVCVGDSIEAINDHSIVGCRHYEVAKMLRELPKSQPFTLRLVQPRRAFDMIGQRSRSSKCPVEAKVSSGRETLRLRSGGAATVEEAPSDVEAAAARRVDDLLESYMGIRDPELAAAVVETARSSAGAQAFARGLDAVLGEFAFPDEFVVEVWAAIGEAHDACG"}, "B4": {"name": "GIPC3 PDZ (93–181), MBP-tagged (protein)", "chain": "GETKEVEVTKTEDALGLTITDNGAGYAFIKRIKEGSIINRIEAVCVGDSIEAINDHSIVGCRHYEVAKMLRELPKSQPFTLRLVQPRRA"}},
  "key": {"GFP–FL-MYO18A (mouse) [1]": {"target": "GFP–FL-MYO18A (mouse) (UniProt Q9JMH9)", "experiment": "NanoSPD; HeLa cells transfected with MYO10^NANOTRAP, a GFP- (or mEMERALD-) tagged bait and an mCherry-tagged prey; co-transport of the prey to filopodial tips; fixed about 24 h after transfection"}, "[2]": {"target": "HCBD–GST (helical cargo-binding domain of mouse Myo6, residues 1052–1096) (mouse) (UniProt Q64331)", "experiment": "pull-down; GST pulldown; proteins mixed at 1 µM each in 40 µl of 150 mM NaCl, 1 mM EDTA, 10 mM Tris-HCl pH 7.5; 1 h at room temperature, then glutathione–Sepharose 4B for 1 h; eluted with SDS, stained gel; both purified"}, "GFP–FL-MYO18A (mouse) [3]": {"target": "GFP–FL-MYO18A (mouse) (UniProt Q9JMH9)", "experiment": "NanoSPD; HeLa cells transfected with MYO10^NANOTRAP, a GFP- (or mEMERALD-) tagged bait and an mCherry-tagged prey; co-transport of the prey to filopodial tips; fixed about 24 h after transfection", "remark": "listed apart in the source"}, "GFP–APPL2 (mouse)": {"target": "T1, GFP–APPL2 (mouse) (UniProt Q8K3G9)", "T1 sequence": "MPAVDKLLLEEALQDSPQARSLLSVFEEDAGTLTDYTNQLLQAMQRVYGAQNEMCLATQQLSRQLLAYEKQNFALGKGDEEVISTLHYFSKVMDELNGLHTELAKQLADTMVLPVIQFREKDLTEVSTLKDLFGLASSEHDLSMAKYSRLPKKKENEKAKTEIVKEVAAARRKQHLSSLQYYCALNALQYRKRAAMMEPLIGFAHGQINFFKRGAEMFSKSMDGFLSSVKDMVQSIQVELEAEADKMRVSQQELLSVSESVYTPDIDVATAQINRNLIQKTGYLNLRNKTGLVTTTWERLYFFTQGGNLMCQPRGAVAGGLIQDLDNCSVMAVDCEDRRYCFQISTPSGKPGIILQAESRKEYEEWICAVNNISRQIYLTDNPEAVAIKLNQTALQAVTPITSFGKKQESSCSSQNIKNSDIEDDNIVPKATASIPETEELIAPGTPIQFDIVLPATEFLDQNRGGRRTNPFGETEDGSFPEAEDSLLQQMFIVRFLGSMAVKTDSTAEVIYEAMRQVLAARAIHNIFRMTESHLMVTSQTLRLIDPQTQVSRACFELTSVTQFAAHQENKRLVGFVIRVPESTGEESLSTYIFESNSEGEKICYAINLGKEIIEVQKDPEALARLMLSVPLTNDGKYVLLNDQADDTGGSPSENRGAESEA", "experiment": "NanoSPD; HeLa cells transfected with MYO10^NANOTRAP, a GFP- (or mEMERALD-) tagged bait and an mCherry-tagged prey; co-transport of the prey to filopodial tips; fixed about 24 h after transfection"}, "mEMERALD–CTNNB1 (mouse)": {"target": "mEMERALD–CTNNB1 (mouse) (UniProt Q02248)", "experiment": "NanoSPD; HeLa cells transfected with MYO10^NANOTRAP, a GFP- (or mEMERALD-) tagged bait and an mCherry-tagged prey; co-transport of the prey to filopodial tips; fixed about 24 h after transfection"}},
  "note": "Like-named read-outs stand apart in the source and are kept apart here. No constants are given. Whether binding was seen depends on the method and setting. Some entries that bind do so weakly or less than the wild type. For some of these results: Sequences can lack the tags named with a protein.",
  "data": [
    {"molecule": "mCh–MYO6 (from UniProt Q64331 1-1262)", "values": [
      {"measurement": "binding", "setting": "GFP–FL-MYO18A (mouse) [1]", "value": "no binding"}
    ]},
    {"molecule": "B1", "values": [
      {"measurement": "binding", "setting": "[2]", "value": "binds weakly"}
    ]},
    {"molecule": "B2", "values": [
      {"measurement": "binding", "setting": "GFP–FL-MYO18A (mouse) [3]", "value": "binds"},
      {"measurement": "binding", "setting": "GFP–APPL2 (mouse)", "value": "binds"},
      {"measurement": "binding", "setting": "mEMERALD–CTNNB1 (mouse)", "value": "binds"}
    ]},
    {"molecule": "B3", "values": [
      {"measurement": "binding", "setting": "[2]", "value": "binds"}
    ]},
    {"molecule": "B4", "values": [
      {"measurement": "binding", "setting": "[2]", "value": "no binding (tested: 1 µM each)"}
    ]}
  ]
}
